Experimental data reported in the RNAGym collection of RNA variant scans (doi:10.1073/pnas.2313332121).
This sample is rich in variants without activity.

B1: TPR 5TU (parent)
chain: GGAUCUUCUCGAUCUAACAAAAAAGACAAAUCUGCCACAAAGCUUGAGAGCAUCUUCGGAUGCAGAGGCGGCAGCCUUCGGUGGCGCGAUAGCGCCAACGUUCUCAACUAUGACACGCAAAACGCGUGCUCCGUUGAAUGGAGUUUAUCAUG

Variants of: B1
Test: polymerase ribozyme fitness, log enrichment relative to wild type (log ratio); higher = more active; in vitro selection for triplet polymerase activity
Method in brief: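 Frozen incubation at −7 °C formed the core of a single, triplicate in vitro selection round applied to PCR-built, transcribed mutant libraries of each subunit of a heterodimeric triplet polymerase ribozyme. Extended constructs were gel-excised, captured with streptavidin beads and amplified by RT-PCR, and input and output libraries were Illumina-sequenced with a filter of ≥10 input reads and ≥1 read per output. Fitness is the logarithm of genotype enrichment relative to wild-type enrichment, with inverse-variance-weighted replicate averaging, and the logarithm is base 2.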

Variant	polymerase ribozyme fitness (log ratio)
A49U A60C	-3.47
A49C C51U G74U C93A A97G C103A	≤ -4.2
G48A C87A	≤ -4.2
A49C G58A A98U C114G	≤ -4.2
A47C A49U C57U C75U U77C C87U C108G G140A	≤ -4.2
A49G G50A G140U	-3.96
G48A A49U U53A U56A A91C C105U A106U	≤ -4.2
A47C U53A A64U A147G	≤ -4.2
A49C A121U U144A	≤ -4.2
A49C A52U A138U	≤ -4.2
G46U G74U A91U U146G C149A	≤ -4.2
A49C G50U C96G	≤ -4.2
A47U C96G C116U	-0.28
A47G U61A	-1.41
G48C C54U A66G G92C	≤ -4.2
A49U C69A G84U C96A U104A C105G A107G G143A	≤ -4.2
A49C A52C C87A U90G C95G	≤ -4.2
A49G U61A A64C G65U G67A A73C C96G U134C	≤ -4.2
A47G A60G A64C C76U C93U U145G	≤ -4.2
A49C C114U C129A U148C	≤ -4.2
A47C U55A C93U U109C G133U G140U A147G	≤ -4.2
A47U C76U C93A	≤ -4.2
G48U U82G C96G	-1.48
A47C U61A G94C C103U U104G	≤ -4.2

Variant	polymerase ribozyme fitness (log ratio)
G48A C54U G80A U90G C149U	≤ -4.2
A47C U55G C93U A137C	≤ -4.2
A49G G92C A115U	-3.24
A49C A64G G70C G88C G94A A106U	≤ -4.2
A47C C63G A91U C96A A106C C129G G136C	≤ -4.2
A47C G83U C103A C118A G133A G136A	≤ -4.2
A49G G84U U145G	-3.09
A47C C54A U56A C75A G86A C93A A107G C132A	≤ -4.2
A47U A60U A91C U135G	≤ -4.2
A47U C85A U139G	-1.24
G48C C87G C99U	≤ -4.2
A49C C54U C96A C103U	≤ -4.2
A49C C75U C76A U77G G81U C87U C93U G94A C131G U134G	≤ -4.2
A47C G74U A107G A122U	≤ -4.2
A49G U61A G80C A98G G141A	≤ -4.2
G48A C75G	≤ -4.2
A49G C105U A113G A115C A147U	≤ -4.2
A49C G143A	-4.14
G48C G86U C93U U151C	≤ -4.2
G48U A52G C54A A64G C85U	≤ -4.2
A47C G59A C72U G81C A89G G128C U134C	≤ -4.2
A49C A60G G68U C72U C123G G124A G143C	≤ -4.2
A49C C131U	≤ -4.2
G48A C99U U111A A137G A147C	≤ -4.2

Variant	polymerase ribozyme fitness (log ratio)
A49C G68C G81C C93A G126A	≤ -4.2
A49C A52C U53C U148G	≤ -4.2
A49C G141C	-4.14
A49C C69G C96A C108U	≤ -4.2
A47C G65U A98U C131G	≤ -4.2
G48C G50U G92C U145G	-4.11
A47U G86U U134A	-3.84
A47G C93G U144A	-2.58
A49C G84A A142C A147U	≤ -4.2
A47U C63G C69G C76A A91U C96U G117U G140C	≤ -4.2
G48C A49C A122U	-3.93
A49C A52G C93U A121C	≤ -4.2
A47C G59A G84U G94U G124A	-3.56
A47G U55A A91G	-2.78
A47C U127C	-1.6
A47G U77A G86C G126C	≤ -4.2
A49C G50A U55G G59U C87A U127C A138C U146A	≤ -4.2
A49G G92U	0.21
A49C A60G C69A G128U C131U U134C G141U	≤ -4.2
G46U C87A	≤ -4.2
G48A A49C A66C G70A C116A A122U G133A	≤ -4.2
A47G U53A G94U A98U U139G U144A	≤ -4.2
A49C G50U C57U C72U G86A G141C	≤ -4.2
G48A A107U C123A	≤ -4.2

Variant	polymerase ribozyme fitness (log ratio)
A49G A52G U55A G67A A107U G133C A137G U139C	≤ -4.2
A49C A52G C72A	≤ -4.2
A49G U61A A64G C76A G141C	≤ -4.2
A49U C75U G81A C96U U109C	≤ -4.2
G48A A91G A120C U135C A147U	≤ -4.2
A47G A52C G88U A142U	≤ -4.2
A49C C54A C87U A97G U144G	≤ -4.2
A49G G81C A91G A98U	-2.95
G48C A60G C114G U144G C149A	≤ -4.2
A47G U56A U90C G92U U139C	≤ -4.2
A47C G141A	-1.5
A47G A52C A97U	-1.2
G48A C57U U111C	≤ -4.2
A49U C63A U144A U151C	≤ -4.2
A47U C54A G83U C95G C99U U130A G141U	≤ -4.2
A49U C75G C93U U101G	≤ -4.2
A47C U56G A60C G94C G100A U151A	≤ -4.2
A47U A121U A147C C149U	-3.04
A47G G86U G88C U109G	≤ -4.2
A49C G133A	≤ -4.2
A49G C54A C118A	-3.25
G48C G68C C76A C93A U104A	≤ -4.2
A49G C87A	≤ -4.2
G48U G65A C95U C105U C129G C132U	≤ -4.2

Variant	polymerase ribozyme fitness (log ratio)
G48C G84A G141C	≤ -4.2
A47C A106C C125A A142U	≤ -4.2
A49C C76U G94C A147U	≤ -4.2
A47C G50A G92A C116G G117C	≤ -4.2
A49G C51G C85G C95G C108U	≤ -4.2
A47U C57A	0.807
A49C A52C C96A U102G U127C U148A	≤ -4.2
A49G G50A A52G A60C C93A C116A A120U	≤ -4.2
G48U G94A U151C	≤ -4.2
G48U A52C U53A G74A C79U C87A G143A C149G	≤ -4.2
G48C U56C A73G C118A	-2.46
A47U G62C G84U	-3.86
A49C A91U G92C A107C C118U	≤ -4.2
A49G G71A C93G	≤ -4.2
A47C U55G	0.183
A49G G100A C105A G140A	≤ -4.2
A49C C99G	≤ -4.2
G48U C79A C93U C132A U148A	≤ -4.2
A47C G50C U139A	≤ -4.2
G48A A106G	-1.77
A49G G68U C76A U102G A107C C149G	≤ -4.2
G48A C57U G62A A89U C103A U145C	≤ -4.2
A47C U55A G68A A73G C118G U127A G143U	≤ -4.2
A47G A91G A97G G112C	≤ -4.2

Variant	polymerase ribozyme fitness (log ratio)
A49C C87A C132A	≤ -4.2
A49C C85G	≤ -4.2
A47U U56A U78C A91U	≤ -4.2
A47G A52U C87U C99A C103G	≤ -4.2
A49G A52G G68U C69G G100C	≤ -4.2
A49G U53G C63A C79U C96A U104C C114U A137C	≤ -4.2
A49C A52C U56C C87G C95U A98G A107C A119G	-4.17
G48C U55A A73G C103A C132A U139C	≤ -4.2
A47C C95U C116A	-0.555
A47U U55A	-0.542
A49C G136A	≤ -4.2
G48C C57G G67U C85A C93A C96U G140C	≤ -4.2
A49C A121C G133A	≤ -4.2
A49C A91U G117U G143A	≤ -4.2
A49U C54A G94U C95G A137U	≤ -4.2
A47U A107G	≤ -4.2
A47G G81C C87A G88A G140U	≤ -4.2
A47U A64U	≤ -4.2
A49C A52C C57A A91U C96G G112A G117U G143C A150G	≤ -4.2
A47C G84A C96U C108U U109G A147U	≤ -4.2
G48A U53A C57G G92C A121G G126A A137U	≤ -4.2
A47U C51A C96U G141C U144C	≤ -4.2
G48A A107G	-4.08
A47U G58U U61A C95U C114A G141U A147C	≤ -4.2

Variant	polymerase ribozyme fitness (log ratio)
G48C G58C C63A G74C G81A A89U A137C	≤ -4.2
G48A G84A A107C C118G	≤ -4.2
A49C G50C U53A C79A A137U	≤ -4.2
A47C C87G G88C	≤ -4.2
A47G G84C C99G G100U C103U	≤ -4.2
A49C C57A C96G U104G A107C U139C G143A U146C	≤ -4.2
G48C A91G A98U C105G A106C A113C U146A	≤ -4.2
G48C C85U G94U C96U U144C	-3.25
A47U G48C C51U C75G U90G C99A	≤ -4.2
A49G C63U G81C U104G	-2.29
A49G G70A G140U	≤ -4.2
A49C C51U C57A	≤ -4.2
A47C C85U	-1.58
G48U A52C C63A A64C A73G C87A C103G U135C	≤ -4.2
A49C G83A A89U U90G U101C	≤ -4.2
A49G A52C G59A G84A G94U C103U	≤ -4.2
A49C C57A C85A U127G C132A A142G	≤ -4.2
A47G C87A U109G C116A	≤ -4.2
G48A A49C G58U C79U C85A A98G	≤ -4.2
G46U C103G G124A U151G	≤ -4.2
G48A G62A G67A G80A G92A A113U C131A A137C U146G	≤ -4.2
A47C A49C G62U A64U C96U A138U	≤ -4.2
A49C C87A A119G G126A G133U U135A	≤ -4.2
